We go through 43 compounds from publication PMC4336329 (PLoS ONE, 2015).

Among all 310,000 compounds or so, about 14,000 (4.5%) showed an effect of 50% or more. Effects have a minus sign here. The list shows a part of the results.
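Note: peak tail current of the secondary pulse compared with the same well before compound.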

The target of this assay is human ether-à-go-go-related gene (hERG) potassium channel (human, UniProt Q12809). Kind of assay: primary screen, population patch clamp on CHO cells stably expressing hERG.
human ether-à-go-go-related gene (hERG) potassium channel, sequence (Q12809 whole entry, looked up): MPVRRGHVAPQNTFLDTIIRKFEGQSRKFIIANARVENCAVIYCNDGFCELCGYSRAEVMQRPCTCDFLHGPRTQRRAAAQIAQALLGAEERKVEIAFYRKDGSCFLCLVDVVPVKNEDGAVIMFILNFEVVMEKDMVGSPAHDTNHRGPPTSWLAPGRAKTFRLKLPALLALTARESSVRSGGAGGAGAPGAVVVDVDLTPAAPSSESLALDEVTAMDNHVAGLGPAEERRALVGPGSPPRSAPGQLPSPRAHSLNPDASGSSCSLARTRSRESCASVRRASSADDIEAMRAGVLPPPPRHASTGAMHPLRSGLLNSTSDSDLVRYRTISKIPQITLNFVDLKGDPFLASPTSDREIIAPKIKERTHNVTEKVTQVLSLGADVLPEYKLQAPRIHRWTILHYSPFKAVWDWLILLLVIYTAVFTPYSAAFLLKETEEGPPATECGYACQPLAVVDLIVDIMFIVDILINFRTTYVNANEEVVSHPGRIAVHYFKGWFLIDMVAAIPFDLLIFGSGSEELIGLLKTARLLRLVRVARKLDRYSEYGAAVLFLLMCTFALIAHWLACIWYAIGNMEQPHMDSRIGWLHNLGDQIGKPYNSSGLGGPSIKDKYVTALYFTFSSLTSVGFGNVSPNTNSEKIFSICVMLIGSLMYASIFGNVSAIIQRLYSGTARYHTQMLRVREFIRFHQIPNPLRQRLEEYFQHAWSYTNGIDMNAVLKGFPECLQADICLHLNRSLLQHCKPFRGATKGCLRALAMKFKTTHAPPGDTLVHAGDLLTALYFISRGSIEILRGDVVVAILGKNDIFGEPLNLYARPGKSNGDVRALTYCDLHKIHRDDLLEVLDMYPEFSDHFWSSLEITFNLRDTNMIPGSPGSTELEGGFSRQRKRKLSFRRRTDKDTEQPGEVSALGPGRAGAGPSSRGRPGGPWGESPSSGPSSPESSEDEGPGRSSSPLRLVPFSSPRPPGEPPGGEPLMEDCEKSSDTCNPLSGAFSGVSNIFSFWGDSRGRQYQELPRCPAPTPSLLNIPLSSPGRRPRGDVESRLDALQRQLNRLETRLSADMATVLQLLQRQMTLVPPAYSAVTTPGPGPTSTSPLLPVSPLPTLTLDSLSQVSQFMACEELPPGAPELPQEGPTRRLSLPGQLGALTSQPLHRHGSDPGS
As for `O=C(NCCN1CCN(C(=O)c2cccs2)CC1)C(=O)Nc1ccc(Br)cc1`, the “hERG current change (%, negative = inhibition) at 10uM” value is given as -73.7%.
For `Cc1ccc(NC(=O)c2c(C(F)(F)F)nn(C)c2SCc2ccc(Cl)cc2)cc1C`, the “hERG current change (%, negative = inhibition) at 10uM” value is recorded as 13.4%.
As to `COc1ccc(C(=O)c2coc3ccc(O)cc23)cc1`, the “hERG current change (%, negative = inhibition) at 10uM” value was 7.61%.
Take `CC(C)OCCCn1c(-c2ccc(Br)cc2)c[nH]c1=S`: the “hERG current change (%, negative = inhibition) at 10uM” value is recorded as -47.3%.
For the compound `CC1CC(C)CN(S(=O)(=O)N2CCC(C(=O)NCc3ccco3)CC2)C1` (stereo not shown), the “hERG current change (%, negative = inhibition) at 10uM” value is on record as 15.1%.
As to `COc1ccc(-n2nc(C(=O)NCC(=O)N3CCCC3)c3ccccc3c2=O)cc1`, the “hERG current change (%, negative = inhibition) at 10uM” value was found to be 14%.
`CCC(=O)N/C(=N/c1nc(C)cc(C)n1)Nc1cccc(OC)c1`: the “hERG current change (%, negative = inhibition) at 10uM” value is -11.4%.
Take `O=C(NCc1ccccc1)C(c1ccccc1)N(C(=O)c1csnn1)C1CC1` (stereo not shown): the “hERG current change (%, negative = inhibition) at 10uM” value was -9.35%.
Regarding `CN1CCC(NC(=S)NC2CC2)CC1`, the “hERG current change (%, negative = inhibition) at 10uM” value worked out at 11.9%.
Turning to `CCN1C(=S)N[C@@H](c2cccs2)C(C(=O)OC)=C1C`, the “hERG current change (%, negative = inhibition) at 10uM” value is 4.42%.
Turning to `Cc1ccc(-n2c(SCC(=O)NCc3ccco3)nc3sc4c(c3c2=O)CC(C)(C)SC4)cc1`, the “hERG current change (%, negative = inhibition) at 10uM” value is -6.39%.
For `CCSc1nnc(NC(=O)CSc2nccn2-c2cc(C)cc(C)c2)s1`, the “hERG current change (%, negative = inhibition) at 10uM” value is -2.92%.
In the case of `COc1ccc(C)cc1S(=O)(=O)N(CC(=O)Nc1cc([N+](=O)[O-])ccc1C)c1ccc(C)c(C)c1`, the “hERG current change (%, negative = inhibition) at 10uM” value is given as 3.15%.
Turning to `COc1ccc(-n2c(=S)[nH]c3ncccc3c2=O)cc1`, the “hERG current change (%, negative = inhibition) at 10uM” value was 7.98%.
With `NC(=O)c1ccc(N2CCNC(=O)C2)c([N+](=O)[O-])c1`, the “hERG current change (%, negative = inhibition) at 10uM” value was 23.5%.
Turning to `NC(=O)c1ccc(NC(=O)C2CC2)cc1`, the “hERG current change (%, negative = inhibition) at 10uM” value is on record as 26.7%.
As for `CN(C)C(CNC(=O)C1CC(=O)N(Cc2ccccc2)C1)c1ccccc1` (stereo not shown), the “hERG current change (%, negative = inhibition) at 10uM” value came out at 16.1%.
Take `CS(=O)(=O)N(CC(=O)Nc1ccccc1C(=O)NCCc1ccccc1)c1ccc2c(c1)OCCO2`: the “hERG current change (%, negative = inhibition) at 10uM” value was -13.1%.
For `NC(=O)NC(=O)CSc1nc(-c2ccccc2)c(-c2ccccc2)n1CC1CCCO1` (stereo not shown), the “hERG current change (%, negative = inhibition) at 10uM” value is reported as -18.1%.
Turning to `Cc1nnc(SCC(=O)Nc2ccc(-c3nc4ccccc4s3)cc2)s1`, the “hERG current change (%, negative = inhibition) at 10uM” value is 23.4%.
In the case of `COc1ccc(C)cc1NC(=O)c1cc2c(=O)n3ccccc3nc2n1C`, the “hERG current change (%, negative = inhibition) at 10uM” value was 18.3%.
The same measure for `O=C(Nc1ccc(Br)cc1)c1cccc(NC(=O)C2C3CC4OC(=O)C2C4C3)c1` (stereo not shown): -7.02%.
Turning to `Cc1ccc(NC(=O)NCCN2CCCCC2)cc1`, the “hERG current change (%, negative = inhibition) at 10uM” value is listed as -11%.
In the case of `Cc1cccc(C)c1N(CC(=O)Nc1cccc(N(C)S(C)(=O)=O)c1)S(C)(=O)=O`, the “hERG current change (%, negative = inhibition) at 10uM” value is -15.1%.
As for `COc1ccc(NC(=O)C2CCCN(c3ncccn3)C2)cc1` (stereo not shown), the “hERG current change (%, negative = inhibition) at 10uM” value is on record as 3.4%.
With `Cc1ccc(N(C(=O)CCl)C(C(=O)NC2CCCCC2)c2cccnc2)cc1C` (stereo not shown), the “hERG current change (%, negative = inhibition) at 10uM” value is listed as -0.326%.
Regarding `Cc1noc(C)c1NC(=O)NCCN1CCN(Cc2ccccc2)CC1`, the “hERG current change (%, negative = inhibition) at 10uM” value came out at 13.7%.
On to `O=C(NCc1cccnc1)C(=O)NCC(c1ccco1)N1CCOCC1` (stereo not shown), for which the “hERG current change (%, negative = inhibition) at 10uM” value came out at 16.9%.
In the case of `CCSc1nnc(NC(=O)Cc2cccc(OC)c2)s1`, the “hERG current change (%, negative = inhibition) at 10uM” value was -1.05%.
Turning to `O=C(Nc1ccccc1)Nc1ccc2ocnc2c1`, the “hERG current change (%, negative = inhibition) at 10uM” value stood at 9.9%.
For the compound `CC(C)(C)c1ccc2c(c1)N(CC(=O)N1CCOCC1)C(=O)CO2`, the “hERG current change (%, negative = inhibition) at 10uM” value is recorded as 9.15%.
For `CSc1ccccc1C(=O)N1CCc2ccccc2C1`, the “hERG current change (%, negative = inhibition) at 10uM” value is reported as -6.97%.
As to `Cc1ccc(NC(=O)CCS(=O)(=O)c2cccc3nonc23)cc1Cl`, the “hERG current change (%, negative = inhibition) at 10uM” value was found to be 17.7%.
Turning to `CCc1nnc(NC(=O)CCC(=O)N2CCN(Cc3ccc(F)cc3)CC2)s1`, the “hERG current change (%, negative = inhibition) at 10uM” value came to 13.5%.
On to `Cl.OCCNCc1ccc(OCc2ccc(Cl)cc2Cl)cc1`, for which the “hERG current change (%, negative = inhibition) at 10uM” value was -45.8%.
For the compound `O=C(CCCCCCCCC(=O)N/N=C/c1ccco1)N/N=C/c1ccco1`, the “hERG current change (%, negative = inhibition) at 10uM” value was -4.84%.
`Cc1cc(CN2C(=O)c3ccccc3C2=O)no1`: the “hERG current change (%, negative = inhibition) at 10uM” value was -6.1%.
As to `CCOC(=O)c1[nH]c(C)c(C(=O)c2ccc(C)cc2)c1C`, the “hERG current change (%, negative = inhibition) at 10uM” value came to 11.2%.
Take `COc1cc(-c2nc(-c3ccc4c(c3)-c3ccccc3S4(=O)=O)c(-c3ccccc3)[nH]2)cc(OC)c1O`: the “hERG current change (%, negative = inhibition) at 10uM” value is reported as 24.5%.
On to `O=C(CCN1CCc2ccccc2C1)Nc1ccccc1F`, for which the “hERG current change (%, negative = inhibition) at 10uM” value was -20%.
In the case of `Cc1cc(C=C(C#N)C#N)ccc1N1CCCC1` it was -65%; in that of `COC(=O)c1cc(N2C(=O)C3C(C2=O)C2(C)C=CC3(C)O2)ccc1Cl` (stereo not shown), -14.8%; in that of `COc1cccc(CC(=O)NNC(=O)c2c(-c3ccccc3)noc2C)c1`, -43.7%.
